Here are results for 56 molecules from ChEMBL document CHEMBL1201862, “PubChem BioAssay data set” (2004).

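Assay format: 96-well plates, 48-hour exposure. Here, GI50 denotes the concentration required for 50% inhibition of growth.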 Active and inactive are the calls of the source. Cut-off read from the data, not from the text of the source: active = GI50 up to about 1.1 µM and inactive = higher.

By GI50 is commonly meant the concentration giving 50% growth inhibition.

For the experiment, the system named is NCI-H322M. The experiment can be described thus: DTP human tumour cell line panel, 48 h.
Consider `O=C(O)c1ccc(OCc2ccccc2)c(Cl)c1`, for which the GI50 was inactive: > 100 µM.

With `OC(C#Cc1ccccc1)(c1ccccc1)c1ccccc1`, the GI50 is inactive: 24.5 µM. In the case of `Cc1ccc(N2C(=O)/C(=C3\Sc4c(nc(C)n(C)c4=O)N3c3ccccc3)SC2=S)cc1` it was inactive: 57.3 µM.

Turning to `CC(C)Cn1cnc2c(NCC(C)O)nc3ccccc3c21` (stereo unspecified), the GI50 is inactive: > 100 µM. In the case of `N#CCCN(c1ccc(-c2nnc(NC(=O)CNNC(=O)CC(=O)Nc3ccccc3)s2)cc1)S(=O)(=O)c1ccccc1` it was inactive: > 100 µM; in that of `O=c1c2cccnc2[nH]c2ccc3[nH]ncc3c12`, inactive: 8.28 µM. `CC1=NOC2(C1)C(=O)Nc1ccccc12` (stereo unspecified): the GI50 was inactive: > 100 µM. As for `CN(C)c1nc(N)nc(CCl)n1`, the GI50 was inactive: 28.7 µM. As to `CCOC(=O)C(C)(c1c(C)[nH]c2ccccc12)c1c(C)[nH]c2ccccc12`, the GI50 was inactive: 19.1 µM. Next, `O=C(CCc1nnc2s/c(=C\c3ccc(Cl)c(Cl)c3)c(=O)n12)Nc1ccc(Cl)c(Cl)c1`: inactive: 51.5 µM; `COc1ccccc1CNC(=O)[C@H](Cc1ccc(O)cn1)NC(C)=O`: inactive: > 100 µM.

With `Cc1ccc(S(=O)(=O)NCCSCCSCCNS(=O)(=O)c2ccc(C)cc2)cc1`, the GI50 is inactive: > 100 µM. For `Cc1c2ccnc(C(=O)NCCN(C)C)c2cc2c3cc(O)ccc3n(C)c12`, the GI50 was active: 0.213 µM. In the case of `COc1cc2c(cc1OC)C(C#N)N(C(=O)c1ccccc1)C=C2OC(=O)c1ccccc1` (stereo unspecified) it was inactive: 24.3 µM; in that of `O=C(Cn1ccnc1[N+](=O)[O-])c1ccccc1`, inactive: > 100 µM; in that of `CC(C)CC[C@H](O)[C@@H](C)[C@H]1[C@@H](OC2OC(C)C(O)C(O)C2O)C[C@H]2[C@@H]3CC=C4C[C@@H](O)CC[C@]4(C)[C@H]3[C@@H](O)C[C@]12C` (stereo partly specified), inactive: 26.3 µM. Next, `COc1ccc(C2C(C#N)=C(S)N(C3OC(COC(C)=O)C(OC(C)=O)C(OC(C)=O)C3OC(C)=O)C(c3ccccc3)=C2C(C)=O)cc1` (stereo unspecified): inactive: > 100 µM; `O=C1CC2C(=O)c3ccccc3CC2c2ccccc21` (stereo unspecified): inactive: 28 µM; `COC(=O)/C=C\n1c(C)cc(=O)[nH]c1=O`: inactive: > 100 µM. Next, `O=C1c2ccccc2-c2nc(-c3ccccc3)cc3c2c1nc1ccccc13`: inactive: 19.3 µM; `COC(=O)C(=O)C(CC(=O)Nc1c(C)cccc1C)C(=O)OC` (stereo unspecified): inactive: > 100 µM. For the molecule `COC(=O)CNC(=O)/C=C/[C@H](O[Si](C)(C)C(C)(C)C)[C@H](/C=C/C(=O)NCC(=O)OC)O[Si](C)(C)C(C)(C)C`, the GI50 is inactive: > 25 µM. Next, `COc1ccc(C(=O)c2c(C(C(=O)c3ccc(OC)cc3)C(=O)c3ccc(OC)cc3)n(C(=O)c3ccc(OC)cc3)c3ccccc23)cc1`: inactive: > 100 µM; `Oc1ccc2ccccc2c1CCc1c(O)ccc2ccccc12`: inactive: 12.4 µM. In the case of `CC(=O)NN(c1ccccc1)C1CCN(c2ccccc2)N1C(C)=O` (stereo unspecified) it was inactive: > 10 µM. Turning to `CC1(C)OCC2OC3([C@@H]4OC(C)(C)O[C@H]4CO)OC(C)(C)OC3C2O1` (stereo partly specified), the GI50 is inactive: > 100 µM. Take `CCCCC(=O)Nc1ccc2c(C)cc(-c3ccc(-c4cc(-c5ccc(C)cc5)cc(-c5ccc(-c6cc(C)c7ccc(NC(=O)CCCC)nc7n6)cc5)n4)cc3)nc2n1`: the GI50 is inactive: > 100 µM. Next, `COC[C@@H](/N=C/C(C)(C)C)C(C)C`: inactive: > 100 µM; `Clc1ccc2c(c1)[nH]c1c2nc2ccccn21`: inactive: 19.6 µM; `N#CC1CCN2N=C(c3ccccc3)SC12c1ccccc1` (stereo unspecified): inactive: 69.2 µM.

Consider `CCOC1CN=C(Nc2cccc3ccccc23)S1` (stereo unspecified), for which the GI50 is inactive: > 10 µM.

For the molecule `N#CCCC(C=O)(CCC#N)CCC#N`, the GI50 was inactive: > 100 µM. For `CC(C)(C)c1cc(CC2C(=O)c3ccccc3C2=O)cc(C(C)(C)C)c1O`, the GI50 is inactive: 2.88 µM.

Turning to `BrCC[P+](c1ccccc1)(c1ccccc1)c1ccccc1`, the GI50 is inactive: 18.9 µM. In the case of `CC(=O)OCC1OC(OC(C)=O)C(Nc2ncc(-c3ccc(C)cc3)s2)C(OC(C)=O)C1OC(C)=O` (stereo unspecified) it was inactive: 16.6 µM; in that of `C/C(=C\CO)CC/C=C(\C)CNc1ccccc1`, inactive: 1.39 µM; in that of `Clc1ccc(C2=NCON=C2c2ccc(Cl)cc2)cc1`, inactive: 18.2 µM. Regarding `C#CCOCn1cnc2c(N)ncnc21`, the GI50 is inactive: > 100 µM. Consider `C=C[C@@H]1C[C@]2(C(=O)OC)Cc3nc4ccccc4nc3CC(C(=O)OC)=C2O1`, for which the GI50 was inactive: > 100 µM. Next, `CCCCCCCCCCCCCCNC(=O)CCC(NC(=O)c1ccc(N(C)Cc2cnc3nc(N)nc(N)c3n2)cc1)C(=O)NCCCCCCCCCCCCCC` (stereo unspecified): inactive: 7.1 µM; `CN1C2(c3ccccc3)C(C(=O)c3ccccc3)=C(C(=O)c3ccccc3)C1(c1ccccc1)c1c(-c3ccccc3)sc(-c3ccccc3)c12`: inactive: > 100 µM; `COc1ccc(-c2c(C#N)c(=O)nc(SC)n2C2OCC(OC(C)=O)C(OC(C)=O)C2OC(C)=O)cc1` (stereo unspecified): inactive: > 100 µM. In the case of `COc1ccc(C2(CC(C)C)CCNC2)cc1OC` (stereo unspecified) it was inactive: > 100 µM. Next, `CN(C)CC(=O)N1CCc2c([nH]c3ccccc23)C1c1cccnc1` (stereo unspecified): inactive: > 100 µM; `Cc1nc(-c2cc3c(ccc4ccccc43)oc2=O)cc2c1c(=O)oc1ccc3ccccc3c12`: inactive: > 100 µM. On to `COc1cc(Oc2c(C)c(Cl)c(OC)c(Cl)c2OC)c2c(c1Cl)COC2=O`, for which the GI50 is inactive: 31 µM. In the case of `O=C(Cn1ccnc1[N+](=O)[O-])NCc1ccc(F)cc1` it was inactive: > 100 µM; in that of `COc1cccc2c1C(=O)c1c(O)c3c(c(O)c1C2=O)C[C@H](O)C[C@@H]3OC1CC(N)C(O)C(C)O1` (stereo partly specified), inactive: 2.48 µM. Next, `O=C1/C(=C/c2ccccc2)N=C(c2ccccc2)N1n1c(-c2ccccc2)nc2ccccc2c1=O`: inactive: > 100 µM.

Take `C[C@H]1CC[C@@H]2[C@@H](C)C[C@H]3[C@@H]4C(C)(C)OC(=O)[C@]4(C)C(=O)[C@@]23C1=O`: the GI50 is inactive: > 100 µM. Next, `Cc1n[nH]c(=O)n1/N=C/c1cccc(Cl)c1`: inactive: > 100 µM; `Cc1cc2c3ccccc3n(C)c2c2c1C(=O)C=CC2=O`: inactive: 21.5 µM. As to `COC(=O)c1c2c(cc3c1CC1(C3)Cc3ccc4c(c3C1=O)CCC4)CCC2` (stereo unspecified), the GI50 is inactive: 4.52 µM. Regarding `C[C@@H]1C[C@H]2[C@@H]3CCC4=CC(=O)C=C[C@]4(C)[C@@]3(Cl)[C@@H](Cl)C[C@]2(C)[C@@]1(O)C(=O)COP(=O)(O)O`, the GI50 is inactive: > 100 µM. In the case of `CSCCCNC(=O)c1csc(-c2csc(CCNC(=O)CNC(=O)OC(C)(C)C)n2)n1` it was inactive: > 100 µM. Next, `CCCCCC(=O)Nc1nc(O)c2[nH]cnc2n1`: inactive: > 100 µM.
